# Source: the supplement of paper PMC3334620
# Whole data set: some 33,000 sequences, median “E-score (-0.5 to 0.5)” near -0.011, cut for the highest 2% near 0.28. Some of the results follow.
# Target: T1, Gcr1 (UniProt P07261)
# T1 sequence: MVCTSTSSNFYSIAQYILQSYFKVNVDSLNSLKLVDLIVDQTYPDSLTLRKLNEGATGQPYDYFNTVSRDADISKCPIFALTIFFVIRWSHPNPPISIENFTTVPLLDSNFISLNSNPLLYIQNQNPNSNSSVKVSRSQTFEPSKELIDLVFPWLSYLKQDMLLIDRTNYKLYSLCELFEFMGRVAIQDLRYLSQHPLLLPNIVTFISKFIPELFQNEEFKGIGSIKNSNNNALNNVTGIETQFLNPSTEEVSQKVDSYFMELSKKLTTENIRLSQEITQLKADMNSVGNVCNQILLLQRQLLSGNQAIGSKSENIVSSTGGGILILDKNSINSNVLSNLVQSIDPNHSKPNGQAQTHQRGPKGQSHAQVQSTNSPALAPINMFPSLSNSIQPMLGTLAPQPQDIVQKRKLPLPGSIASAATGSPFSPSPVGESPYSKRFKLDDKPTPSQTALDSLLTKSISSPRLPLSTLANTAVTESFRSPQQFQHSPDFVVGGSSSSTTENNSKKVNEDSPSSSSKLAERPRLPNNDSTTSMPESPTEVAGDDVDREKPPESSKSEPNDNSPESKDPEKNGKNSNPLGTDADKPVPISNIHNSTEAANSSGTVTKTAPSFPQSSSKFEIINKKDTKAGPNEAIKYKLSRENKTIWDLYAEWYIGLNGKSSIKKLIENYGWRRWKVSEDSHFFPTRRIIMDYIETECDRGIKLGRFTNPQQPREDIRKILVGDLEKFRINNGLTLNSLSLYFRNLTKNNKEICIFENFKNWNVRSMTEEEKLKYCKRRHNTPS
# Experiment: PBM E-score (8-mer binding enrichment) (E-score (-0.5 to 0.5)); higher = stronger / more preferred TF binding; most listed sequences are background and not binding sites
# Conditions: protein concentration: 100 nM; construct: GST-full length
# How it was run: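 PURExpress in vitro transcription/translation supplied GST-tagged yeast transcription factors, either full-length or DNA-binding domain. Applied at about 100-200 nM to universal all-10-mer Agilent arrays double-stranded by primer extension, the bound protein was detected with fluorescent anti-GST. E-scores, modified Wilcoxon-Mann-Whitney statistics, were given by the Universal PBM Analysis Suite to ungapped eight-base words pooled with their reverse complements after masliner normalisation.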
row,Sequence,PBM E-score
1,ACTCCGAA,0.205
2,AAAAGGTA,0.165
3,ACTATTAG,0.188
4,CATGTAAA,0.0253
5,GGAAGACA,0.0661
6,AATACCAT,-0.0711
7,TAGTCATA,-0.0432
8,ATAAAGAA,0.11
9,AAGCGAGC,0.0318
10,TGGACCCA,0.104
11,AACCAATC,0.111
12,AAATGAGT,0.04
13,ACGAAAGT,-0.0283
14,GCAAGCGC,-0.0657
15,GGACACCC,0.0834
16,ATAAGAGA,0.215
17,GTGAAATA,-0.029
18,ATAAAACC,-0.036
19,CTACGCGA,-0.115
20,AACTTCAA,0.128
21,ATACATAG,0.0321
22,CATGACAG,-0.142
23,CATCGCAA,-0.0571
24,ACACGACT,0.0276
25,GGACAACA,-0.253

row,Sequence,PBM E-score
1,ACCTTCGA,-0.345
2,CAGCTTAA,-0.0042
3,GAACCTGA,0.113
4,ACCCCTCA,-0.0444
5,GGAAAGTA,0.0705
6,CCCGTCAG,-0.0643
7,AACTGTGA,0.0857
8,TGCGCCCA,0.0933
9,TGACAAAA,0.101
10,AGATACAT,-0.00532
11,TCACGGGA,-0.00667
12,GATCATAA,0.0567
13,AAACATAC,-0.157
14,AGTCCTAC,-0.205
15,CATTAATC,-0.0468
16,GGAGGTCA,-0.141
17,AGGACCAT,-0.245
18,ATGCGATC,-0.0896
19,CACGACTG,-0.111
20,CCTACGGC,-0.146
21,TCGCGGCA,-0.0609
22,ACCGTTGC,-0.205
23,AGGTTGCG,0.136
24,TACGGTCA,-0.271
25,CGAGCTAC,0.121

row,Sequence,PBM E-score
1,CATAAGAA,0.218
2,GGAGCCTA,0.22
3,AAGTGCGC,0.0149
4,GTATAAAC,0.148
5,GAGGCGCA,0.0503
6,CCCAAATA,0.213
7,GAAGACCC,-0.0599
8,TAAATGGA,0.121
9,AGTATGGG,-0.0166
10,AAATAGGC,0.09
11,ATGTCAAG,-0.0991
12,CTAATAGC,0.00122
13,CGACTCCC,0.119
14,ACCATACT,0.169
15,AAAGATGC,0.0158
16,ATACCGAT,0.134
17,TAAGAAGA,0.243
18,AATTATAA,0.104
19,TACCTTGA,-0.0314
20,ATGAAAGG,0.0366
21,GCGAACCA,-0.0659
22,CCACGCAG,-0.141
23,ACTATAGG,-0.0743
24,CAAAGTAG,-0.113
25,AATCTCCA,0.0534

row,Sequence,PBM E-score
1,CGGGGGAC,-0.159
2,CATTGGAA,0.106
3,ACCATCAG,-0.169
4,CCCTGAGC,0.00173
5,ACTTCACC,-0.0786
6,AGCTTATA,-0.151
7,GGGCGTAA,-0.0371
8,CTGGCCTC,-0.133
9,CCTCTAAG,0.116
10,CCTAAGTC,-0.00559
11,AGTGAAAT,-0.0234
12,CCTGAACA,0.0287
13,GAGCCCAC,0.19
14,ACGGTGGA,-0.108
15,GACTTCTA,0.053
16,AGGCAGAC,-0.0945
17,ACTCGACT,0.0481
18,AAACCCGA,0.19
19,ACCTGCTG,-0.0246
20,AAGGAAGA,-0.00011
21,CCCATGTA,0.0594
22,CGCGAGAC,-0.152
23,AGGCATGC,0.0495
24,GTGATTGA,0.0896
25,CGCAAACC,-0.179

row,Sequence,PBM E-score
1,GGTTGAAA,-0.0848
2,AAGTGTAC,-0.186
3,AACTTCAG,-0.114
4,AGGAGTTC,-0.0621
5,CCATATTA,0.157
6,AAATGCAC,-0.131
7,TATGCCCA,-0.14
8,ATCAAGTG,0.00353
9,TAGTGTAA,-0.12
10,GGCCTCTA,0.0531
11,GAGATAGA,-0.108
12,TCCATGGA,0.0685
13,CCTACCTC,-0.0147
14,TACTTCAA,-0.113
15,CTACTGAA,0.0224
16,CGGGCAAG,-0.127
17,CCCCCGTA,-0.0842
18,GTCGGGAA,0.0614
19,ATTGTAGG,0.0792
20,CCCTGGAG,-0.0212
21,AGGGGACA,-0.00061
22,CCAAATTC,0.126
23,ATGACCCA,-0.286
24,CCCATAGC,-0.16
25,CTATATTA,0.307

row,Sequence,PBM E-score
1,CGTTCATC,-0.119
2,ATTACAGA,0.053
3,AAGAAGTG,0.108
4,ATACGTAC,-0.00136
5,AGAGTTGG,0.0173
6,GGTGGCAA,-0.082
7,CGTCTGAG,-0.0367
8,ATAATTGC,-0.00448
9,CAACGTAA,0.02
10,CGATAAGA,0.0795
11,CATGTCTC,-0.0982
12,CAAGGTAC,-0.102
13,AATAACAA,0.0356
14,GAAGGCCA,-0.0186
15,CACTACTG,-0.102
16,AAGAAAAG,-0.119
17,TCGTACAA,-0.0582
18,CCAAGCCA,-0.155
19,CCAGCTCA,-0.229
20,ACTTTGTC,-0.0253
21,CACTACCG,0.15
22,CCGGCTGA,-0.138
23,GGGGCGTA,-0.0317
24,GGTTCAAC,-0.0678
25,AAGATAGT,-0.0695

row,Sequence,PBM E-score
1,GAACACGA,0.108
2,ACAAGCCG,-0.0157
3,TCGACACA,0.0474
4,ATAGAGTA,-0.22
5,GGTGCGAA,0.201
6,ACCATTCA,-0.118
7,ACAGCCGC,-0.0946
8,CAACGCGG,0.0899
9,ATTGACCG,-0.0728
10,CCCAGATA,0.258
11,ATCTTATA,0.0687
12,CGCCCGAG,0.0978
13,ATAACATA,0.0609
14,ACTGCGTA,0.062
15,CTGGGTAA,-0.0479
16,ACTCCTAA,0.165
17,TCCACTAA,0.418
18,CGCGCAAA,0.0682
19,AAGGGCCA,-0.263
20,GATCATGA,-0.078
21,CTCATCAC,0.0152
22,GCTGCATA,-0.115
